We go through 120 sequences from the supplement of paper PMC10126150.

Values marked as one replicate rest on one cluster of the flow cell; about a third of the high ones do not repeat.

In this data set the test system is ATP. The data set is described as follows: switch fluorescence ratio, 500 uM ATP over buffer (Cy3 cluster intensity, sum of 5 cycles each) (fold (ratio)); higher = stronger signal-on switching upon ATP binding; sequences stand for … in TCGTCGGCAGCGTCAGATGTGTATAAGAGACAGTTTTTTTTTTTTTTTTTTTTTTTTT…TC. The conditions noted are these: aptamer strand: ATP DNA aptamer (quencher-CACCTGGGGGAGTATTGCGGAGGAAGG + anchor), 100 nM annealed; ATP concentration: 500 uM; one replicate. A digest of the protocol: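 Clusters with intensities outside 100-1000 RFU were excluded. The remaining Cy3-labelled switching-strand clusters on a modified Illumina MiSeq flow-cell had been annealed to 100 nM quencher-labelled ATP aptamer and imaged in selection buffer, then after 15 min with 500 uM ATP at 22 °C, for five cycles separated by NaOH stripping and re-annealing. The fluorescence ratio, averaged per switch-domain sequence, is each cluster's summed target-cycle Cy3 intensity over its summed buffer-cycle Cy3 intensity.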
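Further: ATP exposure 15 min at 22 °C before imaging.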

As to TTCATGATAC, the switch fluorescence ratio came to 1.17.
Consider AATAATGCCC, for which the switch fluorescence ratio amounted to 1.02.
The same measure for TGCTATATAT: 0.992; for GGAAGGTATA: 1.01; for GGGAGCTTA: 0.952.
TGCTATAATA: the switch fluorescence ratio was found to be 0.961.
The same measure for AAGGAGTCGA: 1.02; for ATTGCCTCAG: 0.991; for GCAACCCGTG: 1.15.
The same measure for AACAGTCGG: 1.01; for TTGACGCGAC: 3.53; for ATCGGTGAC: 1.04.
The same measure for ACGACGTGCA: 1.09.
With ACAGCTGCAT, the switch fluorescence ratio was found to be 0.946.
The same measure for AGTATCACT: 1.01; for GAAGCTTAAG: 1.
On to ACGTTTAAGG, for which the switch fluorescence ratio came out at 1.01.
On to ATTGGGATC, for which the switch fluorescence ratio worked out at 1.06.
The same measure for AGAGGAAGCC: 0.941.
The same measure for AAGTATGACA: 0.981; for TATGGCGCGA: 1.02.
On to ATAGTCATCG, for which the switch fluorescence ratio came out at 0.99.
The same measure for GGACGGATTA: 0.982.
Consider CTTGAACCGC, for which the switch fluorescence ratio turned out to be 1.24.
The same measure for TTTTAACTCA: 1.02; for AGGGATCTCA: 1; for ACTTTCGGAT: 0.943.
Take CGAAGGACTG: the switch fluorescence ratio worked out at 0.968.
The same measure for CGGACTTCCT: 1.49; for CCGCAGTCAG: 6.58; for CAAAGGGGG: 1.02.
With CGATGCGGAT, the switch fluorescence ratio came to 1.04.
The same measure for TAGTGAAGTG: 0.904.
The same measure for CAGCGGTAGA: 1.02; for TGTGTTACAA: 1.02; for TTATACCCCC: 1.73.
In the case of TCAATCTCTG, the switch fluorescence ratio was 1.05.
With TAGTATAGCC, the switch fluorescence ratio worked out at 0.956.
For the sequence TGGCTGCGCG, the switch fluorescence ratio was found to be 1.
On to CGAAGATGTG, for which the switch fluorescence ratio came out at 0.994.
Regarding AAATGGCGTT, the switch fluorescence ratio turned out to be 1.01.
GAACCAGGTA: the switch fluorescence ratio amounted to 1.14.
The same measure for GATTGAAGAG: 0.972; for CTTAAAGGAA: 0.978; for AACGTTACAG: 1.28.
The same measure for ACAGAGAATA: 0.999; for ACCGTCCCTA: 1.07; for CCGGTCCCCC: 1.59.
The same measure for TTATAATAGA: 1.04.
TATAGGCGTG: the switch fluorescence ratio was 1.02.
The same measure for GTGTAACAAG: 1.03; for GAAGGTCGCA: 1.01.
The same measure for TATTGAGTCA: 0.969; for TACTTGGTGT: 1.04; for TGATTGAACC: 1.03.
The same measure for CTTGGCTAAA: 1; for GACTAATGC: 1.22; for CCGCTGTATT: 2.27.
For ATGTGCCCAG, the switch fluorescence ratio came to 1.02.
GTAGGGGGC: the switch fluorescence ratio worked out at 1.01.
The same measure for CGCATTGGTT: 1.09; for GCAACAAATA: 1.01; for AGTCCGTAGG: 1.01.
On to TTTGATCGAA, for which the switch fluorescence ratio is 1.01.
Consider GTAAATAAGT, for which the switch fluorescence ratio was determined as 0.974.
CCTTCTTCAA: the switch fluorescence ratio worked out at 1.82.
On to GCGTCTGCTC, for which the switch fluorescence ratio was 0.98.
For TGAATATCCC, the switch fluorescence ratio was determined as 1.03.
The same measure for GGCAGGGCCG: 0.988.
The same measure for AAAGTAACGG: 1.2; for GTTATATATC: 0.996; for CGGCTGGTTG: 0.966.
The same measure for AGCATTGAAA: 1; for TCTTCGCGAA: 1.78.
As for ACTACTAGTC, the switch fluorescence ratio was 1.05.
As to ATGCTACCGC, the switch fluorescence ratio was 1.07.
For the sequence TGGCACCCCT, the switch fluorescence ratio was 1.01.
The same measure for CCAGGCAGTG: 1.02; for ATAGCTTTTG: 1.02; for AGGAAACCGC: 1.06.
The same measure for GGTAGCTGGT: 1; for TTTGTCGCTA: 1.
The same measure for CAGTTAGACT: 0.995; for TTCTGCAACC: 2.64.
Regarding CCTCTTTGGC, the switch fluorescence ratio was 1.13.
The same measure for TAGCTTTTGC: 0.989.
The same measure for CGTAGTCATC: 1.24; for AACCTATTGC: 1.01.
The same measure for TCGTGCTCGC: 0.963; for ACACGGAATT: 1.07; for TCCATCAGGA: 1.03.
As to GCTGTATAGC, the switch fluorescence ratio amounted to 1.04.
Regarding TACCAAGGTC, the switch fluorescence ratio is 1.03.
The same measure for CCATGGGCGC: 0.995; for AACCAAGTTC: 1.03.
As to GTATGAACGA, the switch fluorescence ratio is 0.992.
Take CTTGATCGGG: the switch fluorescence ratio came out at 1.05.
The same measure for CTAGTAGGTT: 0.957; for CAATTTGACA: 1.
The same measure for TGAGAGTCCG: 1.01; for ACCGGACGGC: 1.19; for CCCTGTACGA: 1.37.
On to TCCAAGAATT, for which the switch fluorescence ratio amounted to 0.94.
The same measure for AATGTTGTGT: 0.986.
The same measure for CCGCGGCTCG: 1.94; for CAGGATGCAA: 1.24.
The same measure for AATCAGGGG: 1.06.
Turning to ATGAGCAGAG, the switch fluorescence ratio is 1.06.
As to GACCATTGCG, the switch fluorescence ratio worked out at 0.969.
As for GCTGTCTAGA, the switch fluorescence ratio was 1.04.
The same measure for GGAGGGCGCG: 1.02; for TCCTACATTG: 0.997.
The same measure for AAAAGTAGTG: 0.98; for TGGAGGCATT: 1.01.
Regarding TCGGGTTGCC, the switch fluorescence ratio turned out to be 0.992.
The same measure for GAGTGCGTTA: 1.02; for TGCCTATGAT: 0.98.
Consider GCGCTGTATT, for which the switch fluorescence ratio turned out to be 1.
Take TCACGTCGAA: the switch fluorescence ratio worked out at 1.07.
Regarding TAGGAGAGAA, the switch fluorescence ratio stood at 1.
